Read-outs that look alike come from different tables or passages of the source.

From article PMC6032384 (International Journal of Molecular Sciences, 2018) come the findings set out here.

In assay [1] the test system is SCC-9 (human oral squamous cell carcinoma).
Assay [2] shares this test system. Briefly: cells. The following applies: SCC-9, 72 h.

As a reminder, the IC50 is the concentration at which inhibition is half-maximal. A low value points to inhibition by little substance. In assay [1] (SCC9, AB assay, 72 h), `Cc1c[nH]c(=O)[n-]c1=O.F[P-](F)(F)(F)(F)F.[Ru+2].c1ccc(-c2ccccn2)nc1.c1ccc(P(c2ccccc2)c2ccccc2)cc1.c1ccc(P(c2ccccc2)c2ccccc2)cc1` [CRT, [Ru(PPh3)2(Thy)(bipy)]PF6] returned an IC50 of 2400 nM.
Take `COc1cccc2c1C(=O)c1c(O)c3c(c(O)c1C2=O)C[C@@](O)(C(=O)CO)C[C@@H]3O[C@H]1C[C@H](N)[C@H](O)[C@H](C)O1` [DOX, Doxorubicin, reference compound]: the “Selectivity index (SI)” value came out at 3 in assay [1] (IC50[MRC5]/IC50[SCC-9]) and 10.2 in assay [1] (IC50[PBMC]/IC50[SCC-9]). Besides, the IC50 in assay [2] was 500 nM.
